Reference: US20250026844A1 (SHANDONG SIMCERE BIOPHARMACEUTICAL, published 2025)

B1: BCMA-Lab01 (Fc fusion)
heavy: QVQLVESGGGLVQPGGSLRLSCSGSGFTLDYYMIGWFRQAPGKEREGLSSISPADGSTYYADSVKGRFTISRDSAKNTVYLQMNNLKPEDTALYYCAAGNEATISWGFGPWEYDYWGQGTQVTVSS[human IgG1 Fc with C220S (EU numbers) skipped]
notes: VHH-hFc recombinant candidate antibody; no linker stated
B2: BCMA-Lab03 (Fc fusion)
heavy: B1 heavy with Q1E, L4V, S23A, D30A, Y31H, S74N, N85S, W111Y
notes: as for B1
B3: BCMA-Lab04 (Fc fusion)
heavy: B1 heavy with Q1E, L4V, S23A, D30A, S74N, N85S, T103A, S105T, W111Y
notes: as for B1
B4: BCMA-Lab05 (Fc fusion)
heavy: QVQLVESGGGLVQPGGSLRLSCAASGFTLAYYMIGWFRQAPGKEREGVSSISSGTGSTYYANSVKDRFTISRDNAANKVYLEMNSLKPEDTAIYYCAAGNEATITWGFGPYEYDYWGQGTQVTVSS[human IgG1 Fc with C220S (EU numbers) skipped]
notes: as for B1
B5: BCMA-Lab08 (Fc fusion)
heavy: QVQLVESGGGLVQPGGSLRLSCTDSGFTLNYYMIGWFRQAPGKEQEGLSSISAGDGSTYYADSVKGRFTISRDYAKNTVYLEMNDLKPEDTGVYYCAAGNEGAITWGFGPYEYDYWGQGTQVTVSS[human IgG1 Fc with C220S (EU numbers) skipped]
notes: as for B1
B6: BCMA-Lab09 (Fc fusion)
heavy: EVQVVESGGGLVQPGGSLRLSCAASGFTFSSSAMSWARQAPGKGLEWVSGIYPDGSAEYTDSMKGRFTITRDNAKNTVYLQMNSLKPEDTAVYYCAIGRGPSIQAMFRPGGWGQGTQVTVSS[human IgG1 Fc with C220S (EU numbers) skipped]
B7: BCMA-Lab16 (Fc fusion)
heavy: QLQLVESGGGLVQPGESLRLSCTGSGFTLAYYMIGWFRQAPGKEREGLSCISPADGSTYYADSVKGRFTISRDNAKNVVYLQMNNLKPEDTGVYYCAAGNEAAITWGFGPYEYDQWGQGTQVTVSS[human IgG1 Fc with C220S (EU numbers) skipped]
B8: BCMA-Lab18 (Fc fusion)
heavy: QVQLVESGGRLVQPGESLRLSCVASGFTFSSSAMSWARQAPGKGLEWMSGIYPDGTPVYADSMKGRFTVSRDNAKNMVYLQMNSLKPEDTAVYYCAVGIRLSDYQGQRRQLLGQGTQVTVSS[human IgG1 Fc with C220S (EU numbers) skipped]
B9: HPN217-hHcAb (Fc fusion)
heavy: EVQLVESGGGLVQPGRSLTLSCAASTNIFSISPYGWYRQAPGKQRELVAAIHGTSTLYADSVKGRFTISRDNAKNSIYLQMNSLRPEDTALYYCNKVPWGDYHPGNVYWGQGTQVTVSS[human IgG1 Fc with C220S (EU numbers) skipped]
notes: no linker stated

Tests used:
human BCMA-His protein [1] = target: T1, human BCMA-His protein (human, UniProt Q02223 1-54); experiment: SPR (Biacore), antibody captured on Protein A chip, BCMA-His in solution
T1 construct: Bought protein; also called human BCMA protein; huBCMA-His; not shown: His tag
T1 sequence (looked up): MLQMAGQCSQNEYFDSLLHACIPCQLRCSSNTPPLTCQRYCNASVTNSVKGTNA

human BCMA on cells [2] = target: T2, human BCMA on cells (human, UniProt Q02223 1-184); experiment: FACS, H929 cells
T2 construct: whole, on cells; also called H929 cells; U266 cells
T2 sequence (looked up): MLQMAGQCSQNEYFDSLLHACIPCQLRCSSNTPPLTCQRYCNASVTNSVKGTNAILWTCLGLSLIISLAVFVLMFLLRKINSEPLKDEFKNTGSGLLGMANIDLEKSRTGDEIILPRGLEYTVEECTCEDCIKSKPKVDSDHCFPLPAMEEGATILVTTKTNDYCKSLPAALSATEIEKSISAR

human BCMA on cells [3] = target: T2, human BCMA on cells; experiment: FACS, H929 cells; remark: listed apart in the source
human BCMA-His protein [4] = target: T1, human BCMA-His protein; experiment: SPR (Biacore), antibody captured on Protein A chip, BCMA-His in solution; remark: listed apart in the source
human BCMA on cells [5] = target: T2, human BCMA on cells; experiment: FACS, U266 cells
human BCMA on cells [6] = target: T2, human BCMA on cells; experiment: FACS, U266 cells; remark: listed apart in the source
human BCMA on cells [7] = target: T2, human BCMA on cells; experiment: FACS, H929 cells; FACS, H929 cells
human BCMA-His protein [8] = target: T1, human BCMA-His protein; experiment: SPR (Biacore), antibody captured on Protein A chip, BCMA-His in solution; remark: listed apart in the source
human BCMA on cells [9] = target: T2, human BCMA on cells; experiment: FACS, H929 cells; remark: listed apart in the source
human BCMA on cells [10] = target: T2, human BCMA on cells; experiment: FACS, U266 cells; remark: listed apart in the source
human BCMA on cells [11] = target: T2, human BCMA on cells; experiment: FACS, H929 cells; remark: listed apart in the source
human BCMA on cells [12] = target: T2, human BCMA on cells; experiment: FACS, U266 cells; remark: listed apart in the source

| Binder | Kd (human BCMA-His protein [1]) [nM] | koff (human BCMA-His protein [1]) [s⁻¹] | kon (human BCMA-His protein [1]) [M⁻¹ s⁻¹] | EC50 (human BCMA on cells [2]) [nM] | Maximum mean fluorescence intensity (human BCMA on cells [2]) [MFI] | EC50 (human BCMA on cells [6]) [nM] | Maximum mean fluorescence intensity (human BCMA on cells [6]) [MFI] | Kd (human BCMA-His protein [8]) [nM] | koff (human BCMA-His protein [8]) [s⁻¹] | kon (human BCMA-His protein [8]) [M⁻¹ s⁻¹] | EC50 (human BCMA on cells [9]) [nM] | Maximum mean fluorescence intensity (human BCMA on cells [9]) [MFI] | EC50 (human BCMA on cells [10]) [nM] | Maximum mean fluorescence intensity (human BCMA on cells [10]) [MFI] | other results |
| --- | --- | --- | --- | --- | --- | --- | --- | --- | --- | --- | --- | --- | --- | --- | --- |
| B1 | 0.527 | 0.000702 | 1.33e+06 | 2.82 | 6980 | 1.8 | 3140 |  |  |  |  |  |  |  | EC50 (human BCMA on cells [3]): 3.05 nM; Maximum mean fluorescence intensity (human BCMA on cells [3]): 10000 MFI; Kd (human BCMA-His protein [4]): 0.533 nM; koff (human BCMA-His protein [4]): 0.000681 s⁻¹; kon (human BCMA-His protein [4]): 1.28e+06 M⁻¹ s⁻¹; EC50 (human BCMA on cells [5]): 3.07 nM; Maximum mean fluorescence intensity (human BCMA on cells [5]): 1750 MFI |
| B2 | 3.79 | 0.00315 | 829000 | 5.36 | 7760 | 7.05 | 1280 |  |  |  |  |  |  |  |  |
| B3 | 3.22 | 0.00269 | 836000 | 7.72 | 6900 | 3.93 | 2510 |  |  |  |  |  |  |  |  |
| B4 |  |  |  | 1.42 | 3190 | 3.63 | 714 |  |  |  |  |  |  |  |  |
| B5 | 20.8 | 0.275 | 1.32e+07 | 3.34 | 2770 | 5.14 | 693 |  |  |  |  |  |  |  |  |
| B6 |  |  |  |  |  |  |  | 79.7 | 0.00399 | 50000 |  |  |  |  | EC50 (human BCMA on cells [7]): 44.1 nM |
| B7 |  |  |  |  |  |  |  | 0.558 | 0.00157 | 2.82e+06 | 3.51 | 5000 | 1.48 | 1400 |  |
| B8 |  |  |  |  |  |  |  | 1.01 | 0.00206 | 2.04e+06 | 2.79 | 5270 | 1.76 | 1420 |  |
| B9 |  |  |  |  |  |  |  | 1.17 | 0.0031 | 2.64e+06 | 4.12 | 5020 | 2.8 | 1260 | EC50 (human BCMA on cells [11]): 2.24 nM; EC50 (human BCMA on cells [12]): 1.83 nM |

Residue numbers refer to the chain shown, from its start. Like-named read-outs stand apart in the source and are kept apart here.
